From the supplement of paper PMC10369915 come the findings set out here.

This is one part of the list. Cut-off read from the data, not from the text of the source: active = 3.2 or more and inactive = the rest. Most of these values are background signal.
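Note: displayed peptides selected on beads carrying the immobilized SH2 domain, with library peptides lacking any tyrosine serving as negative controls.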

In one experiment the target is SHP2 C-SH2 domain E139D. The experiment in a line: enrichment score (SH2-bound / input frequency) (ratio); bacterial display of known human phosphotyrosine sites (pTyr-Var adds point mutants) read by sequencing; higher = stronger binding; tyrosines were phosphorylated by kinases first. The note with it: peptide library: pTyr-Var.
Consider FLTQHYDAKPQ [ANG_Y38], for which the enrichment score was inactive: 1.03.
As for VDASYCGGRGV [ANTXR2_Y381_Y381C], the enrichment score was inactive: 0.646.
The same measure, in the same setting: with KIIRWYVSSEG [ANK2_Y3907_R3906W] the figure was inactive: 2.27; with TVDASYYGGRG [ANTXR2_Y380], inactive: 0.475; with HISGVYKLPPD [ANGPTL7_Y145_R140H], inactive: 1.01.
With ESKKHYGFSLF [ANXA3_Y295_F291S_YF], the enrichment score is inactive: 1.03.
As to EFKKHYGFSLF [ANXA3_Y295_YF], the enrichment score was inactive: 1.46.
On to PFAEPYADFGG [APBA1_Y187_S184A_YF], for which the enrichment score was inactive: 0.624.
Turning to RQQQDYWLIDV [ANPEP_Y600], the enrichment score was inactive: 0.922.
Still for that read-out and setting: for DYSLKYATDIP [APC_Y1183] the value was inactive: 0.754; for RQQQDYWLKDV [ANPEP_Y600_I603K], inactive: 0.969; for GLRQSYFVEAQ [APCS_Y142_G141S], inactive: 1.04.
On to RASGIYFVPKG [APBB1IP_Y340_YF], for which the enrichment score is inactive: 1.39.
As for IEPVIYVVQRR [ANOS1_Y217], the enrichment score is inactive: 0.251.
On to RPSRWYQFPVA [ANOS1_Y259_R262P], for which the enrichment score is inactive: 2.94.
On the same count and under the same terms, with SWKRRYFLLRA [APBB1IP_Y331] the figure was inactive: 0.201; with GEDEPYSEPFA [APBA1_Y183_YF], inactive: 0.406; with SWKRRYFLLWA [APBB1IP_Y331_R335W], inactive: 0.399.

The target of the next experiment is SHP2 C-SH2 domain wild-type. The description is as above. The note with it: peptide library: pTyr-Var.
For FLTQHYDAKPQ [ANG_Y38], the enrichment score is inactive: 0.84.
Regarding VDASYCGGRGV [ANTXR2_Y381_Y381C], the enrichment score is inactive: 2.12.
As to KIIRWYVSSEG [ANK2_Y3907_R3906W], the enrichment score is inactive: 2.3.
In the case of TVDASYYGGRG [ANTXR2_Y380], the enrichment score is inactive: 0.856.
As to HISGVYKLPPD [ANGPTL7_Y145_R140H], the enrichment score is inactive: 1.09.
Consider ESKKHYGFSLF [ANXA3_Y295_F291S_YF], for which the enrichment score is inactive: 0.921.
As for EFKKHYGFSLF [ANXA3_Y295_YF], the enrichment score was inactive: 1.08.
As for PFAEPYADFGG [APBA1_Y187_S184A_YF], the enrichment score is inactive: 0.603.
On to RQQQDYWLIDV [ANPEP_Y600], for which the enrichment score was inactive: 0.913.
Consider DYSLKYATDIP [APC_Y1183], for which the enrichment score is inactive: 0.799.
In the case of RQQQDYWLKDV [ANPEP_Y600_I603K], the enrichment score was inactive: 0.376.
Consider GLRQSYFVEAQ [APCS_Y142_G141S], for which the enrichment score was inactive: 0.572.
With RASGIYFVPKG [APBB1IP_Y340_YF], the enrichment score is inactive: 1.22.
Consider IEPVIYVVQRR [ANOS1_Y217], for which the enrichment score was inactive: 0.318.
Take RPSRWYQFPVA [ANOS1_Y259_R262P]: the enrichment score is inactive: 2.4.
In the case of SWKRRYFLLRA [APBB1IP_Y331], the enrichment score is inactive: 0.309.
On the same count and under the same terms, with GEDEPYSEPFA [APBA1_Y183_YF] the figure was inactive: 0.361; with SWKRRYFLLWA [APBB1IP_Y331_R335W], inactive: 0.422.

A further experiment deals with SHP2 N-SH2 domain L43F. The description is as above. As to conditions: peptide library: pTyr-Var.
For the molecule FLTQHYDAKPQ [ANG_Y38], the enrichment score is inactive: 1.02.
On the same count and under the same terms, with VDASYCGGRGV [ANTXR2_Y381_Y381C] the figure was inactive: 2.77.
On to KIIRWYVSSEG [ANK2_Y3907_R3906W], for which the enrichment score was inactive: 1.99.
On to TVDASYYGGRG [ANTXR2_Y380], for which the enrichment score was inactive: 0.649.
HISGVYKLPPD [ANGPTL7_Y145_R140H]: the enrichment score is inactive: 0.951.
As to ESKKHYGFSLF [ANXA3_Y295_F291S_YF], the enrichment score is inactive: 0.636.
For EFKKHYGFSLF [ANXA3_Y295_YF], the enrichment score is inactive: 1.06.
Turning to PFAEPYADFGG [APBA1_Y187_S184A_YF], the enrichment score is inactive: 0.748.
RQQQDYWLIDV [ANPEP_Y600]: the enrichment score was inactive: 1.12.
Regarding DYSLKYATDIP [APC_Y1183], the enrichment score is inactive: 0.786.
For RQQQDYWLKDV [ANPEP_Y600_I603K], the enrichment score was inactive: 0.743.
As to GLRQSYFVEAQ [APCS_Y142_G141S], the enrichment score was inactive: 0.858.
Consider RASGIYFVPKG [APBB1IP_Y340_YF], for which the enrichment score was inactive: 1.68.
On the same count and under the same terms, with IEPVIYVVQRR [ANOS1_Y217] the figure was inactive: 0.319; with RPSRWYQFPVA [ANOS1_Y259_R262P], inactive: 3.18; with SWKRRYFLLRA [APBB1IP_Y331], inactive: 0.356.
GEDEPYSEPFA [APBA1_Y183_YF]: the enrichment score was inactive: 0.433.
Same read-out and setting: with SWKRRYFLLWA [APBB1IP_Y331_R335W] the figure was inactive: 0.311.

The target in a further experiment is SHP2 N-SH2 domain T42A. Described as above. The note with it: peptide library: pTyr-Var.
For FLTQHYDAKPQ [ANG_Y38], the enrichment score is inactive: 0.801.
For the molecule VDASYCGGRGV [ANTXR2_Y381_Y381C], the enrichment score was inactive: 2.2.
Take KIIRWYVSSEG [ANK2_Y3907_R3906W]: the enrichment score was inactive: 2.18.
Take TVDASYYGGRG [ANTXR2_Y380]: the enrichment score was inactive: 0.569.
On the same count and under the same terms, for HISGVYKLPPD [ANGPTL7_Y145_R140H] the value was inactive: 0.718; for ESKKHYGFSLF [ANXA3_Y295_F291S_YF], inactive: 0.89; for EFKKHYGFSLF [ANXA3_Y295_YF], inactive: 0.991.
Regarding PFAEPYADFGG [APBA1_Y187_S184A_YF], the enrichment score was inactive: 0.655.
As to RQQQDYWLIDV [ANPEP_Y600], the enrichment score is inactive: 1.01.
On to DYSLKYATDIP [APC_Y1183], for which the enrichment score was inactive: 0.686.
Consider RQQQDYWLKDV [ANPEP_Y600_I603K], for which the enrichment score is inactive: 0.472.
GLRQSYFVEAQ [APCS_Y142_G141S]: the enrichment score is inactive: 0.717.
The same measure, in the same setting: for RASGIYFVPKG [APBB1IP_Y340_YF] the value was inactive: 0.97; for IEPVIYVVQRR [ANOS1_Y217], inactive: 0.208.
As to RPSRWYQFPVA [ANOS1_Y259_R262P], the enrichment score was inactive: 2.82.
On the same count and under the same terms, with SWKRRYFLLRA [APBB1IP_Y331] the figure was inactive: 0.226.
GEDEPYSEPFA [APBA1_Y183_YF]: the enrichment score is inactive: 0.302.
For the molecule SWKRRYFLLWA [APBB1IP_Y331_R335W], the enrichment score is inactive: 0.382.

In the next experiment the target is SHP2 N-SH2 domain T52S. The experiment is described as above. As to conditions: peptide library: pTyr-Var.
Consider FLTQHYDAKPQ [ANG_Y38], for which the enrichment score was inactive: 0.853.
For VDASYCGGRGV [ANTXR2_Y381_Y381C], the enrichment score was inactive: 2.76.
Turning to KIIRWYVSSEG [ANK2_Y3907_R3906W], the enrichment score is inactive: 2.19.
For TVDASYYGGRG [ANTXR2_Y380], the enrichment score was inactive: 0.597.
Consider HISGVYKLPPD [ANGPTL7_Y145_R140H], for which the enrichment score is inactive: 0.967.
Same read-out and setting: with ESKKHYGFSLF [ANXA3_Y295_F291S_YF] the figure was inactive: 0.932; with EFKKHYGFSLF [ANXA3_Y295_YF], inactive: 1.
As to PFAEPYADFGG [APBA1_Y187_S184A_YF], the enrichment score is inactive: 0.58.
For RQQQDYWLIDV [ANPEP_Y600], the enrichment score is inactive: 1.27.
On to DYSLKYATDIP [APC_Y1183], for which the enrichment score is inactive: 0.797.
Still for that read-out and setting: for RQQQDYWLKDV [ANPEP_Y600_I603K] the value was inactive: 0.603; for GLRQSYFVEAQ [APCS_Y142_G141S], inactive: 0.868; for RASGIYFVPKG [APBB1IP_Y340_YF], inactive: 1.7.
With IEPVIYVVQRR [ANOS1_Y217], the enrichment score is inactive: 0.213.
For the molecule RPSRWYQFPVA [ANOS1_Y259_R262P], the enrichment score was inactive: 3.02.
On the same count and under the same terms, with SWKRRYFLLRA [APBB1IP_Y331] the figure was inactive: 0.216; with GEDEPYSEPFA [APBA1_Y183_YF], inactive: 0.365.
In the case of SWKRRYFLLWA [APBB1IP_Y331_R335W], the enrichment score is inactive: 0.415.

A further experiment addresses SHP2 N-SH2 domain wild-type. The experiment is described as above. The note with it: peptide library: pTyr-Var.
On to FLTQHYDAKPQ [ANG_Y38], for which the enrichment score is inactive: 0.982.
For VDASYCGGRGV [ANTXR2_Y381_Y381C], the enrichment score was inactive: 2.62.
KIIRWYVSSEG [ANK2_Y3907_R3906W]: the enrichment score is inactive: 2.04.
For the molecule TVDASYYGGRG [ANTXR2_Y380], the enrichment score was inactive: 0.592.
In the case of HISGVYKLPPD [ANGPTL7_Y145_R140H], the enrichment score was inactive: 1.1.
On the same count and under the same terms, with ESKKHYGFSLF [ANXA3_Y295_F291S_YF] the figure was inactive: 0.772; with EFKKHYGFSLF [ANXA3_Y295_YF], inactive: 0.942.
As for PFAEPYADFGG [APBA1_Y187_S184A_YF], the enrichment score is inactive: 0.823.
On to RQQQDYWLIDV [ANPEP_Y600], for which the enrichment score is inactive: 0.843.
As for DYSLKYATDIP [APC_Y1183], the enrichment score is inactive: 0.757.
In the case of RQQQDYWLKDV [ANPEP_Y600_I603K], the enrichment score is inactive: 0.529.
For the molecule GLRQSYFVEAQ [APCS_Y142_G141S], the enrichment score is inactive: 0.693.
On to RASGIYFVPKG [APBB1IP_Y340_YF], for which the enrichment score is inactive: 1.25.
Turning to IEPVIYVVQRR [ANOS1_Y217], the enrichment score is inactive: 0.27.
Take RPSRWYQFPVA [ANOS1_Y259_R262P]: the enrichment score was inactive: 2.25.
As to SWKRRYFLLRA [APBB1IP_Y331], the enrichment score was inactive: 0.246.
As for GEDEPYSEPFA [APBA1_Y183_YF], the enrichment score was inactive: 0.367.
As to SWKRRYFLLWA [APBB1IP_Y331_R335W], the enrichment score is inactive: 0.312.
